The antibiotic and cytotoxicity screens of Wong et al. (2023)
The other results are listed elsewhere or left out.

What was measured:
HSkMC = human skeletal muscle cells; experiment: cytotoxicity call (relative viability < 0.9); details: 10 µM
HepG2 = experiment: cytotoxicity call (relative viability < 0.9); details: 10 µM
S. aureus RN4220 = experiment: growth inhibition call (relative growth <= 0.2); details: 50 µM

| SMILES | cytotoxicity call (HSkMC) | cytotoxicity call (HepG2) | growth inhibition call (S. aureus RN4220) |
| --- | --- | --- | --- |
| NNC(=O)C1=NO[C@H]2COC3(CCN(c4ncccn4)CC3)OC[C@@H]12 | inactive | inactive | inactive |
| C[C@H]1CN([C@@H](C)CO)C(=O)c2cc(NC(=O)Cc3cn(C)c4ccccc34)ccc2O[C@H]1CN(C)Cc1ccc(Oc2ccccc2)cc1 | inactive | inactive | inactive |
| O=C(NO)c1cn(CC(=O)N2CCC3(CC2)C(=O)NCN3c2ccccc2)nn1 | inactive | inactive | inactive |
| C[C@@H]1CN([C@H](C)CO)C(=O)Cc2cc(NC(=O)Nc3ccc(C(F)(F)F)cc3)ccc2O[C@@H]1CN(C)S(C)(=O)=O | inactive | inactive | inactive |
| COc1ccc(NC(=O)N(C)C[C@@H]2OCc3cnnn3CCCC(=O)N([C@@H](C)CO)C[C@@H]2C)c(OC)c1 | inactive | inactive | inactive |
| Cc1ccc(S(=O)(=O)Nc2ccc3c(c2)C(=O)N([C@H](C)CO)C[C@@H](C)[C@@H](CN(C)C(=O)NC(C)C)O3)cc1 | inactive | inactive | inactive |
| COc1ccc2c3c([nH]c2c1)[C@H](CO)N(C[C@]13CCN(CC1)C(=O)Nc1ccc(cc1)F)C(=O)c1ccc(cc1)F | inactive | inactive | inactive |
| Cc1ccc2nc3c(cc(C(=O)NCCN4CCOCC4)c(=N)n3C[C@H]3CCCO3)c(=O)n2c1 | inactive | inactive | inactive |
| C[C@H](CO)N1C[C@H](C)[C@@H](CN(C)C(=O)NC2CCCCC2)Oc2c(NC(=O)C3CC3)cccc2C1=O | inactive | inactive | inactive |
| NC(=O)NN=Cc1ccc([N+](=O)[O-])o1 | inactive | active | active |
| Cc1ccc(S[C@]2(C(=O)NC3CC3)CC(=O)N(Cc3cc(C(F)(F)F)cc(C(F)(F)F)c3)[C@@H]2c2ccc(CO)cc2)cc1 | inactive | inactive | inactive |
| COc1ccc(CC(N)C(=O)NC2C(CO)OC(n3cnc4c(N(C)C)ncnc43)C2O)cc1.Cl.Cl (stereo not given) | active | active | inactive |
| C[C@@H]1CCCCO[C@@H](CN(C)C(=O)C2CCCCC2)[C@H](C)CN([C@@H](C)CO)C(=O)c2cc(NS(=O)(=O)c3ccc(Cl)cc3)ccc2O1 | inactive | inactive | inactive |
| COc1cc(CN)cc(OC)c1OC | inactive | inactive | inactive |
| C[C@@H]1CN([C@H](C)CO)C(=O)c2c(c3ccccc3n2C)-c2ccccc2CO[C@H]1CN(C)C(=O)c1cc(Cl)cc(Cl)c1 | active | inactive | inactive |
| Cc1cc(C(=O)Nc2cccc3c2O[C@@H](CN(C)S(C)(=O)=O)[C@H](C)CN([C@H](C)CO)C3=O)n(C)n1 | inactive | inactive | inactive |
| CN1CCN(C(=O)C[C@H]2CC[C@H]3[C@@H](COC[C@H](O)CN3C(=O)C3CCOCC3)O2)CC1 | inactive | inactive | inactive |
| Cc1ccc(F)cc1NC(=O)[C@@H](C)N | inactive | inactive | inactive |
| Cc1noc(C)c1NC(=O)N[C@@H]1C=C[C@H](CC(=O)NCCCN(C)C)O[C@H]1CO | inactive | inactive | inactive |
| O=C(/C=N/O)Nc1ccccc1C(=O)O | inactive | inactive | inactive |
| Cn1ccnc1CN1CC[C@]2(COCCN(S(C)(=O)=O)C2)C1 | inactive | inactive | inactive |
| C[C@@H](N)C1CCC(C(=O)Nc2ccncc2)CC1 (stereo not given in full) | inactive | inactive | inactive |
| C[C@@H]1CN([C@@H](C)CO)C(=O)Cc2cc(NC(=O)Nc3ccccc3)ccc2O[C@@H]1CN(C)Cc1ccc(C(=O)Nc2ccccc2N)cc1 | inactive | inactive | inactive |
| CC(C)NC(=O)N[C@@H]1C=C[C@H](CC(=O)NCCN2CCCC2)O[C@@H]1CO | inactive | inactive | inactive |
| C[C@@H]1CN([C@@H](C)CO)C(=O)c2cc(NC(=O)Nc3cccc4ccccc34)ccc2O[C@@H](C)CCCCO[C@H]1CN(C)C(=O)c1ccccc1 | inactive | inactive | inactive |
| Cc1ccc(S(=O)(=O)N(C)C[C@H]2OCCCC[C@H](C)Oc3ccc(NC(=O)Nc4ccc(C(F)(F)F)cc4)cc3C(=O)N([C@H](C)CO)C[C@@H]2C)cc1 | inactive | inactive | inactive |
| C[C@@H]1CN([C@H](C)CO)C(=O)c2cc(NC(=O)Nc3ccc(C(F)(F)F)cc3)ccc2O[C@H]1CN(C)Cc1ccccc1 | active | active | inactive |
| OCCN1CCOCC1 | inactive | inactive | inactive |

| SMILES | cytotoxicity call (HSkMC) | cytotoxicity call (HepG2) | growth inhibition call (S. aureus RN4220) |
| --- | --- | --- | --- |
| COc1ccc(CN(C)C[C@H]2OCCCC[C@H](C)Oc3ccc(NC(=O)C4CCCCC4)cc3C(=O)N([C@H](C)CO)C[C@@H]2C)cc1 | inactive | inactive | inactive |
| C[C@H]1CN([C@@H](C)CO)C(=O)Cc2cc(NC(=O)Nc3ccc(C(F)(F)F)cc3)ccc2O[C@H]1CN(C)Cc1ccc(-c2ccccc2)cc1 | active | active | inactive |
| C[C@@H]1CN([C@H](C)CO)C(=O)c2cc(NS(=O)(=O)c3ccccc3)ccc2O[C@@H](C)CCCCO[C@H]1CN(C)C(=O)c1ccccc1 | inactive | inactive | inactive |
| COc1ccc(NC(=O)Nc2ccc3c(c2)C(=O)N([C@@H](C)CO)C[C@H](C)[C@H](CN(C)C(=O)c2ccccc2)OCCCC[C@@H](C)O3)cc1 | inactive | inactive | inactive |
| C[C@H](CO)N1C[C@H](C)[C@@H](CN(C)S(=O)(=O)c2ccccc2)Oc2ccc(NS(=O)(=O)c3cn(C)cn3)cc2C1=O | inactive | inactive | inactive |
| O=C(CN1CCOCC1)N[C@H]1CC[C@@H](CCn2cc(C3CC3)nn2)O[C@H]1CO | inactive | active | inactive |
| O=C(O)c1cc(F)c2nc(N3[C@@H]4CC[C@H]3C[C@@H](OCc3c(-c5ccccc5OC(F)(F)F)noc3C3CC3)C4)sc2c1 | inactive | inactive | active |
| COc1ccc(S(=O)(=O)N(C)C[C@@H]2Oc3c(NS(=O)(=O)c4cn(C)cn4)cccc3C(=O)N([C@H](C)CO)C[C@H]2C)cc1 | inactive | inactive | inactive |
| C[C@H]1CN([C@@H](C)CO)C(=O)c2cc(NS(=O)(=O)c3cn(C)cn3)ccc2O[C@@H]1CN(C)S(=O)(=O)c1cccs1 | inactive | inactive | inactive |
| C[C@H]1CN([C@@H](C)CO)C(=O)c2cc(NC(=O)Cn3cnnn3)ccc2O[C@H]1CN(C)C(=O)Nc1cccc2ccccc12 | inactive | inactive | inactive |
| C[C@@H]1CCCCO[C@H](CN(C)C(=O)Cc2ccccc2)[C@H](C)CN([C@H](C)CO)C(=O)c2cc(NS(=O)(=O)c3cccs3)ccc2O1 | inactive | inactive | inactive |
| CCS(=O)(=O)Nc1ccc2c(c1)C(=O)N(C)C[C@H](OC)[C@@H](C)CN(Cc1ccccn1)[C@@H](C)CO2 | inactive | inactive | inactive |
| NC(=O)[C@H]1[C@@H]2C(=O)O[C@@H](c3ccccc3)[C@@H](c3ccccc3)N2[C@@H](c2ccc(O)cc2)[C@]12C(=O)Nc1ccc(C#CC3(O)CCCCCC3)cc12 | inactive | inactive | inactive |
| O=S(=O)(NCC[C@H]1CC[C@@H](NS(=O)(=O)c2ccccc2Cl)[C@@H](CO)O1)c1ccc(F)cc1 | inactive | inactive | inactive |
| C[C@@H]1CCCCO[C@H](CN(C)C(=O)Nc2ccc3c(c2)OCO3)[C@@H](C)CN([C@H](C)CO)C(=O)c2cc(NS(=O)(=O)c3ccccc3)ccc2O1 | inactive | inactive | inactive |
| O=C(CN1CCOCC1)NCC[C@@H]1CC[C@@H](NC(=O)Nc2ccccc2)[C@@H](CO)O1 | inactive | inactive | inactive |
| C[C@H](CO)N1C[C@H](C)[C@H](CN(C)Cc2ccc(C(F)(F)F)cc2)OCCCC[C@H](C)Oc2ccc(NS(=O)(=O)c3ccc(Cl)cc3)cc2C1=O | active | active | inactive |
| CC(C)(C)OC(=O)C[C@H]1CC=CC[C@@H](CC(=O)N[C@@H](CO)Cc2ccccc2)C(=O)N[C@@H](C(C)(C)C)COC1=O | inactive | inactive | inactive |
| C[C@@H]1CCCCO[C@@H](CN(C)S(=O)(=O)c2cccs2)[C@@H](C)CN([C@@H](C)CO)C(=O)c2cc(NC(=O)Nc3ccc(F)cc3)ccc2O1 | inactive | inactive | inactive |
| C[C@@H]1CCCCO[C@@H](CN(C)C(=O)Nc2ccc(C(F)(F)F)cc2)[C@@H](C)CN([C@H](C)CO)C(=O)c2cc(NS(=O)(=O)c3ccc(Cl)cc3)ccc2O1 | inactive | inactive | inactive |
| Cc1ccc(S(=O)(=O)Nc2ccc3c(c2)C(=O)N([C@H](C)CO)C[C@@H](C)[C@H](CN(C)S(=O)(=O)c2ccc(F)cc2)OCCCC[C@H](C)O3)cc1 | inactive | inactive | inactive |
| COc1ccc(S(=O)(=O)N(C)C[C@@H]2Oc3c(NS(=O)(=O)c4ccc(C)cc4)cccc3C(=O)N([C@H](C)CO)C[C@@H]2C)cc1 | inactive | inactive | inactive |
| C[C@H](CO)N1C[C@H](C)[C@@H](CN(C)S(=O)(=O)c2ccc(F)cc2)OCCCC[C@H](C)Oc2ccc(NC(=O)Cc3ccccc3)cc2C1=O | inactive | inactive | inactive |
| C[C@@H]1CCCCO[C@H](CN(C)Cc2ccc(C(F)(F)F)cc2)[C@@H](C)CN([C@@H](C)CO)C(=O)c2cc(NC(=O)C3CCCCC3)ccc2O1 | inactive | active | inactive |
| Cc1noc(C)c1NC(=O)Nc1cccc2c1O[C@@H](CN(C)C(=O)NC(C)C)[C@H](C)CN([C@H](C)CO)C2=O | inactive | inactive | inactive |
| CNC[C@H]1OCCCC[C@H](C)Oc2ccc(NC(=O)CCCN(C)C)cc2C(=O)N([C@H](C)CO)C[C@@H]1C | inactive | inactive | inactive |
| Cc1ccc(S(=O)(=O)N(C)C[C@H]2Oc3ccc(NS(=O)(=O)c4cn(C)cn4)cc3CC(=O)N([C@@H](C)CO)C[C@@H]2C)cc1 | inactive | inactive | inactive |
